Laboratory results taken from the supplement of paper PMC4604168 (melanoma cell lines).
Some of the results follow. Single values are uncertain, as repeats are few or missing.

Tested on: UACC62
Assay: cell count relative to DMSO control; melanoma cells; higher = more viable cells
Conditions: library dose: low library concentration; 72 h
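Note: cell number obtained by counting DAPI-stained nuclei in high-throughput microscope images with image analysis software, screen run in 1,536-well plates.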

Structure (SMILES)	cell count
Cc1cn(-c2cc(NC(=O)c3ccc(C)c(Nc4nccc(-c5cccnc5)n4)c3)cc(C(F)(F)F)c2)cn1 [nilotinib] + COC(=O)c1sccc1S(=O)(=O)Nc1ccc(Nc2ccccc2)cc1OC [GSK0660] (first compound 0.2 µM, partner dose 1 µM)	115%
Cn1c(=O)n(-c2ccc(C(C)(C)C#N)cc2)c2c3cc(-c4cnc5ccccc5c4)ccc3ncc21 + CO[C@@H]1[C@H](N(C)C(=O)c2ccccc2)C[C@H]2O[C@]1(C)n1c3ccccc3c3c4c(c5c6ccccc6n2c5c31)C(=O)NC4 [Midostaurin] (first compound 0.004 µM, partner dose 0.08 µM)	98.5%
Cc1cn(-c2cc(NC(=O)c3ccc(C)c(Nc4nccc(-c5cccnc5)n4)c3)cc(C(F)(F)F)c2)cn1 [nilotinib] + NC(=O)Nc1cc(-c2cccc(F)c2)sc1C(=O)N[C@H]1CCCNC1 [AZD7762] (first compound 0.2 µM, partner dose 0.02 µM)	106%
COc1ccc(C2=N[C@@H](c3ccc(Cl)cc3)[C@@H](c3ccc(Cl)cc3)N2C(=O)N2CCNC(=O)C2)c(OC(C)C)c1 [Nutlin-3] + O=c1cc(-c2cccc3c2Sc2ccccc2S3)oc(N2CCOCC2)c1 [KU55933] (first compound 0.1 µM, partner dose 1 µM)	87.9%
Cc1cn(-c2cc(NC(=O)c3ccc(C)c(Nc4nccc(-c5cccnc5)n4)c3)cc(C(F)(F)F)c2)cn1 [nilotinib] + O=S(=O)(c1ccccc1)N(CC(F)(F)F)c1ccc(C(O)(C(F)(F)F)C(F)(F)F)cc1 [T0901317] (first compound 0.2 µM, partner dose 1.4 µM)	85.1%
Cc1cc(Nc2cc(N3CCN(C)CC3)nc(/C=C/c3ccccc3)n2)n[nH]1 + Cc1ccc(NC(=O)c2cccc(N(C)C)c2)cc1NC(=O)c1ccc(O)cc1 [ZM336372] (first compound 0.04 µM, partner dose 2 µM)	89.4%
Cn1c(=O)n(-c2ccc(C(C)(C)C#N)cc2)c2c3cc(-c4cnc5ccccc5c4)ccc3ncc21 + c1cc(-c2cnn3cc(-c4ccc(OCCN5CCCCC5)cc4)cnc23)ccn1 [Dorsomorphin] (first compound 0.004 µM, partner dose 0.4 µM)	86.8%
COc1ccc(C2=N[C@@H](c3ccc(Cl)cc3)[C@@H](c3ccc(Cl)cc3)N2C(=O)N2CCNC(=O)C2)c(OC(C)C)c1 [Nutlin-3] + Oc1nc(-c2ccc(C(F)(F)F)cc2)nc2c1CSCC2 [XAV939] (first compound 0.1 µM, partner dose 2 µM)	89.1%
Cc1cc(Nc2cc(N3CCN(C)CC3)nc(/C=C/c3ccccc3)n2)n[nH]1 + CCN(CC)CCCCNc1ncc2cc(-c3cc(OC)cc(OC)c3)c(NC(=O)NC(C)(C)C)nc2n1 [PD173074] (first compound 0.04 µM, partner dose 0.1 µM)	94.3%
Cc1cn(-c2cc(NC(=O)c3ccc(C)c(Nc4nccc(-c5cccnc5)n4)c3)cc(C(F)(F)F)c2)cn1 [nilotinib] + NCC(=O)Nc1ccc(-n2nc(C(F)(F)F)cc2-c2ccc3c(ccc4ccccc43)c2)cc1 [OSU03012] (first compound 0.2 µM, partner dose 1 µM)	83.5%
Cc1cn(-c2cc(NC(=O)c3ccc(C)c(Nc4nccc(-c5cccnc5)n4)c3)cc(C(F)(F)F)c2)cn1 [nilotinib] + CO[C@@H]1[C@H](N(C)C(=O)c2ccccc2)C[C@H]2O[C@]1(C)n1c3ccccc3c3c4c(c5c6ccccc6n2c5c31)C(=O)NC4 [Midostaurin] (first compound 0.2 µM, partner dose 0.08 µM)	61.6%
Cc1cc(Nc2cc(N3CCN(C)CC3)nc(/C=C/c3ccccc3)n2)n[nH]1 + COC(=O)c1sccc1S(=O)(=O)Nc1ccc(Nc2ccccc2)cc1OC [GSK0660] (first compound 0.04 µM, partner dose 1 µM)	92.9%
COc1ccc(C2=N[C@@H](c3ccc(Cl)cc3)[C@@H](c3ccc(Cl)cc3)N2C(=O)N2CCNC(=O)C2)c(OC(C)C)c1 [Nutlin-3] + CC(C)CCN1c2nc(Nc3cc(F)c(O)c(F)c3)ncc2N(C)C(=O)C1C [BID1870] (first compound 0.1 µM, partner dose 0.2 µM)	84.5%
COc1ccc(C2=N[C@@H](c3ccc(Cl)cc3)[C@@H](c3ccc(Cl)cc3)N2C(=O)N2CCNC(=O)C2)c(OC(C)C)c1 [Nutlin-3] + COc1ccc2c(c1)CCC1C2CCC2(C)C(NCCCCCCN3C(=O)C=CC3=O)CCC12 [U73122] (first compound 0.1 µM, partner dose 0.4 µM)	90.9%
Cc1cc(Nc2cc(N3CCN(C)CC3)nc(/C=C/c3ccccc3)n2)n[nH]1 + Oc1nc(-c2ccc(C(F)(F)F)cc2)nc2c1CSCC2 [XAV939] (first compound 0.04 µM, partner dose 2 µM)	85.3%
COc1ccc(C2=N[C@@H](c3ccc(Cl)cc3)[C@@H](c3ccc(Cl)cc3)N2C(=O)N2CCNC(=O)C2)c(OC(C)C)c1 [Nutlin-3] + CCc1ccc(CCOc2ccc(CC3SC(=O)NC3=O)cc2)nc1 [pioglitazone] (first compound 0.1 µM, partner dose 2 µM)	73.2%
COc1ccc(C2=N[C@@H](c3ccc(Cl)cc3)[C@@H](c3ccc(Cl)cc3)N2C(=O)N2CCNC(=O)C2)c(OC(C)C)c1 [Nutlin-3] + O=C(CCCCCCC(=O)Nc1ccccc1)NO [vorinostat] (first compound 0.1 µM, partner dose 0.08 µM)	88.1%
Cn1c(=O)n(-c2ccc(C(C)(C)C#N)cc2)c2c3cc(-c4cnc5ccccc5c4)ccc3ncc21 + Cn1cncc1[C@@](N)(c1ccc(Cl)cc1)c1ccc2c(c1)c(-c1cccc(Cl)c1)cc(=O)n2C [tipifarnib] (first compound 0.004 µM, partner dose 0.01 µM)	62%
